Source: PubChem BioAssay AID488969 (Vanderbilt High Throughput Screening Facility, 2010)
The full ranking holds about 110,000 compounds; the median of “z-score” is about -0.1, and the highest 2% start at about 2. This is one part of the list. Active and inactive are the calls of the source.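 Rule for the calls: active = z-score in the third read window above 3 or below -3; inactive = the rest.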

What follows are compounds tested against Metabotropic glutamate receptor 8 (Rattus norvegicus) (UniProt P70579) (assay: mGluR8 Gi/Go-coupled signaling modulation – cell-based, rat, thallium flux, HTS, primary screen (AID 488969)). Settings: HEK293 rat mGluR8, GIRK (G protein-gated inwardly rectifying potassium channel) thallium flux, FluoZin2; at 10 µM; stronger effect = higher value; submaximal glutamate (EC20) added with thallium.
UniProt P70579, sequence (P70579 whole entry, looked up): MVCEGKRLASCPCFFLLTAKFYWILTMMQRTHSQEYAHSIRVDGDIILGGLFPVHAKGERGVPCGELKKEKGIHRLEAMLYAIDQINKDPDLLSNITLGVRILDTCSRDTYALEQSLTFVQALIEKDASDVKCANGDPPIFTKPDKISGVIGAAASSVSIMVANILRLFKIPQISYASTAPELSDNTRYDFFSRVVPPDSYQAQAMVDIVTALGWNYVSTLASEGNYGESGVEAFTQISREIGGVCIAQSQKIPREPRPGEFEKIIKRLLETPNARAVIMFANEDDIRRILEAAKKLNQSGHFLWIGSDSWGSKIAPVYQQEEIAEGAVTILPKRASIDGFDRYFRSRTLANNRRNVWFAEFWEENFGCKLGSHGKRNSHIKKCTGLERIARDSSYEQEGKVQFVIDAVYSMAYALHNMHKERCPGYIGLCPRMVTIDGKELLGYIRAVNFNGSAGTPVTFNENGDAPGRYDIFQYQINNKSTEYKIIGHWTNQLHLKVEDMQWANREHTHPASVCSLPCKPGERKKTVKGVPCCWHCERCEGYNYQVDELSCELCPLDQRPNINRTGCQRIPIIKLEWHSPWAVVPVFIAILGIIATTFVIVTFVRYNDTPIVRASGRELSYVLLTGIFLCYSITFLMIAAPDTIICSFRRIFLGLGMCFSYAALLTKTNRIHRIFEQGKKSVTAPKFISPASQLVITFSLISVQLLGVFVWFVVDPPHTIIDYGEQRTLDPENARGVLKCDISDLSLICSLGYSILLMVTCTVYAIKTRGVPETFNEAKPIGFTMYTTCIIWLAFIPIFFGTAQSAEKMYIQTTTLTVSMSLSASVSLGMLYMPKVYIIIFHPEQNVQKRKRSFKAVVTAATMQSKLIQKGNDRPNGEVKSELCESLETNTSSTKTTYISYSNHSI

Row | SMILES | z-score
1 | O=C(COc1ccc(Cl)cc1)NCCC1=CCCCC1 | -0.144
2 | COc1cc(/C=N/NC(=O)c2ccc(=O)[nH]n2)ccc1O | 0.00961
3 | COc1ccc(C)cc1NC(=O)c1nnn(Cc2cccc(F)c2)c1N | -0.0513
4 | O=C(CS(=O)(=O)Cc1ccccc1)Nc1ccccn1 | -0.133
5 | O=C(Cc1cccs1)Nc1cccc(-c2nc3ccccc3o2)c1 | 0.0214
6 | Cc1ccc(S(=O)(=O)CCCS(=O)(=O)c2ccc(C)cc2)cc1 | 0.0762
7 | COc1ccc(N(CC(=O)N/N=C/c2ccc(-c3ccc([N+](=O)[O-])cc3)o2)S(=O)(=O)c2ccc(C)cc2)cc1 | -0.652
8 | CCn1ccnc1C(O)c1ccccc1OC (stereo not drawn) | -0.0835
9 | c1ccc(OCc2nn3c(Cn4cnc5ccccc54)nnc3s2)cc1 | -1.54
10 | O=C(CCCOc1ccccc1)N1CCN(c2ccccc2)CC1 | -0.161
11 | COc1ccccc1-c1nc(C(N)=O)c2[nH]c(=O)n(-c3cccc(C)c3)c2n1 | -0.238
12 | COC(=O)c1cc(NS(=O)(=O)c2ccc3c(c2)CCC(=O)N3)cc(C(=O)OC)c1 | -0.762
13 | O=C(c1ccco1)N1CCN(c2ncccn2)CC1 | -0.183
14 | OC(COc1ccc2cc(Br)ccc2c1)CN1CCOCC1 (stereo not drawn) | 1.15
15 | NC(=O)CSc1nc2cc([N+](=O)[O-])ccc2n1-c1cccc(C(F)(F)F)c1 | 0.159
16 | Cc1ccc(C(=O)CS(C)(=O)=O)cc1 | -0.3
17 | Oc1ccc(C=Nc2ccc3ncccc3c2)c(O)c1 | -0.168
18 | CCC(C)NC(=O)c1ccccc1NC(=O)Nc1ccccc1 (stereo not drawn) | active: 6.32
19 | O=C(CNC(=O)c1cccs1)OCC(=O)c1ccccc1 | -0.369
20 | NC(=O)c1cccc2c3c([nH]c12)CCCC3 | -0.903
21 | CC(=O)NCCc1ccc(S(=O)(=O)NCc2ccc3c(c2)OCO3)cc1 | 0.18
22 | Cc1cc(C(C)(C)C)oc1C(=O)NCCCNC(=O)c1oc(C(C)(C)C)cc1C | -0.461
23 | COc1ccc(NC(=O)CC2CCCCC2)cc1OC | 0.26
24 | N#CCSc1nc2c(sc(=S)n2Cc2ccco2)c(=O)n1-c1ccc(F)cc1 | -0.529
25 | Cc1ccc(S(=O)(=O)Cc2sc3ccccc3[n+]2C)cc1 | -0.915
26 | N#CC1(C#N)C2=C(CCCC2)NC(c2ccccc2)C1(C#N)C#N (stereo not drawn) | -0.0942
27 | CCn1c(SCc2ccc(C(=O)Nc3nccs3)cc2)nnc1-c1ccc(NC(C)=O)cc1 | -0.264

Row | SMILES | z-score
28 | CO/N=C/NC(=O)c1cn(-c2ccc(F)cc2)c(=O)c2ccccc12 | -0.78
29 | O=C(NC1CCCCC1)C(c1ccco1)N(CCc1ccccc1)C(=O)C(F)(F)F (stereo not drawn) | -0.392
30 | O=S(=O)(c1ccc(Cl)s1)N1CCCc2cccc(O)c21 | -0.145
31 | O=C(COc1ccc(Cl)cc1)N1CCCC1 | -0.0542
32 | CC(=O)Nc1ccc(-c2cc3ccccc3o2)cc1 | -0.217
33 | N#Cc1cccc(NC(=O)Nc2cccs2)c1 | 2.55
34 | CC(=O)N1c2ccccc2N(Cc2ccc([N+](=O)[O-])cc2)C(=O)C1(C)C | -1.64
35 | O=[N+]([O-])c1ccc(-c2cnc(SCc3ccccc3Cl)[nH]2)cc1 | -0.185
36 | Nc1c(C(=O)OCC2CCCO2)c2nc3ccccc3nc2n1C1CCCC1 (stereo not drawn) | -2.16
37 | O=C(CSc1nnc(-c2ccccc2)n1-c1ccc(Cl)cc1)NC1CCS(=O)(=O)C1 (stereo not drawn) | -0.107
38 | CCOC(=O)N1CCC(N2Cc3cccc(C(=O)NCc4ccc(C)cc4)c3C2=O)CC1 | -1.16
39 | COc1ccc(CCNC(=O)c2ccc(CNS(=O)(=O)c3cccc(Cl)c3)cc2)cc1OC | -0.231
40 | COc1ccc(/C=C/C(=O)NCCCc2ccccc2)cc1OC | -0.525
41 | CC(C)NC(=O)C1CCN(C(=O)C(C(=O)c2ccccc2)n2cc(Cl)ccc2=O)CC1 (stereo not drawn) | 0.609
42 | CC(=O)Nc1ccccc1Sc1ccccc1 | 0.023
43 | Cc1csc(SC(C)C(=O)Nc2ccc(S(=O)(=O)N3CCCC3)cc2)n1 (stereo not drawn) | -0.347
44 | CC(=O)c1cccc(NC(=O)Cc2ccc3c(c2)CCCC3)c1 | 0.168
45 | CCCc1cc(=O)[nH]c(SCC(=O)N2CCN(S(=O)(=O)c3ccc(C)cc3)C2)n1 | 0.457
46 | O=C1c2cccc(OCC(=O)N3N=C(c4cccs4)CC3c3ccc(F)cc3)c2CCN1Cc1cccnc1 (stereo not drawn) | 0.804
47 | O=S(=O)(NCCCN1CCN(c2ccccc2F)CC1)c1cccc2cccnc12 | 1.24
48 | Cc1cccc(N(C(=O)CCC(=O)Nc2ccccn2)C(C(=O)NC(C)C)c2ccc(O)cc2)c1 (stereo not drawn) | 0.691
49 | Cc1[nH]c(=O)[nH]c1C(=O)CCCCC(=O)OCC(=O)Nc1ccccn1 | -0.322
50 | O=C(N/N=C/c1ccccc1Cl)c1[nH]c2ccc(Br)cc2c1-c1ccccc1 | -0.402
51 | Cn1c(=O)c2nnn(/N=C(\c3ccccc3)C3CC3)c2n(C)c1=O | -0.0655
52 | CCCn1c(=N)n(CCOc2ccc(OC)cc2)c2ccccc21 | active: 3.04
53 | NNC(=O)c1ccc(Cn2cc(Cl)cn2)cc1 | -0.35
